The other results are listed elsewhere or left out. The energies were worked out here from pooled read counts, against the library average; single values are noisy.
Target: T1, Pho4 (S. cerevisiae) (UniProt P07270)
T1 sequence: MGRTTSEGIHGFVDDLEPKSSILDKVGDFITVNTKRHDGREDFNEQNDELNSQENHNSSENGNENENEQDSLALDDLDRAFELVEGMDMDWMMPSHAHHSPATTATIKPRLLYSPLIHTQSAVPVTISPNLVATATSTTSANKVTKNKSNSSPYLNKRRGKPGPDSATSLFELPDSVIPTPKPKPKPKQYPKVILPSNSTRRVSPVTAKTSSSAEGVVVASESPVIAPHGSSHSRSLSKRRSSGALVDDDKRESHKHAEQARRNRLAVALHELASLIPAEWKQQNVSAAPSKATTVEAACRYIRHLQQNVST
Assay: relative binding free energy (BET-seq); higher = weaker binding
Settings: reference: library average

Relative binding free energy, 0.08 kcal/mol:
GTATTCACGTGGGCAT
TAGTGCACGTGTGGGC
TTAATCACGTGCGCGG
TAGATCACGTGTAATT
GTACGCACGTGAGTTG

Relative binding free energy, -0.16 kcal/mol:
GAGAGCACGTGGGTTA

Relative binding free energy, -0.04 kcal/mol:
TCGAGCACGTGTTGTT
ATGGGCACGTGTAATG
CCTGTCACGTGGGGAT
TATCGCACGTGGTTGG
TGTGACACGTGTGCAT

Relative binding free energy, 0.07 kcal/mol:
CAGGTCACGTGGCGGA
TATATCACGTGCATGG
TTCTGCACGTGTGGTA
GAGTCCACGTGTGTGT

Relative binding free energy, 0.17 kcal/mol:
GGGGTCACGTGGGAAA
TTTGTCACGTGACTGA
TTAATCACGTGTAAAG
TTGGACACGTGATGGC
TGGTTCACGTGGGGCG
ATCTTCACGTGGGATA
TTGATCACGTGAGTGT
TGTTTCACGTGGGACG

Relative binding free energy, 0.03 kcal/mol:
AGCTACACGTGGAGGG
CGATGCACGTGTTCGT
CCAGGCACGTGTATGG
TTCGTCACGTGGTGCA

Relative binding free energy, 0.21 kcal/mol:
GTATGCACGTGAAGGT
GTAGGCACGTGAAGAG
TGCTTCACGTGCTAGG

Relative binding free energy, 0 kcal/mol:
AGGTCCACGTGTTTGT
CTGTGCACGTGTGGGT
CGATACACGTGTTGGT
TGGCACACGTGGAGGA
AGGAACACGTGGTTGC
AGTAACACGTGTGTTT
AAATACACGTGTTTAT
GCTAGCACGTGTTAGT

Relative binding free energy, 0.18 kcal/mol:
GTATGCACGTGATTTT
ATTCTCACGTGTTATT
GTCATCACGTGGTAGG
GTATTCACGTGTATGT

Relative binding free energy, -0.2 kcal/mol:
AGTTGCACGTGTGTCA

Relative binding free energy, -0.19 kcal/mol:
TCTAGCACGTGGGGCT

Relative binding free energy, -0.02 kcal/mol:
GGAAGCACGTGGTTTT
ATTTACACGTGGGGGG
CTTTGCACGTGGAAGG
AAAATCACGTGTTAGT
GGTATCACGTGGGGCG
TGTCACACGTGGGCTG

Relative binding free energy, -0.21 kcal/mol:
AGGAGCACGTGGGATT
TCGGGCACGTGGGGTA
TAAGGCACGTGGTTGA

Relative binding free energy, -0.13 kcal/mol:
ACTTGCACGTGGGGTC
GGGGGCACGTGCTGGT

Relative binding free energy, -0.31 kcal/mol:
ATTGGCACGTGCTAGG

Relative binding free energy, 0.41 kcal/mol:
GTCTTCACGTGATGTG
TCATTCACGTGAGGGG
AGTTTCACGTGAGTAG

Relative binding free energy, 0.02 kcal/mol:
ATGGCCACGTGGAATG
CGTGTCACGTGGTGAA
ATTTGCACGTGTTCTG
AGGTACACGTGGAGTA

Relative binding free energy, 0.31 kcal/mol:
TTTTTCACGTGGTGTC

Relative binding free energy, 0.04 kcal/mol:
AGTTGCACGTGTAAGG
ATTGTCACGTGCTATT
CCGGTCACGTGGCGGT
AGTTCCACGTGGTGTT
GGGTGCACGTGGTTGG

Relative binding free energy, 0.14 kcal/mol:
GAGGGCACGTGTAAGA
GGGAACACGTGGCGGG

Relative binding free energy, -0.07 kcal/mol:
TGGTGCACGTGTTCTG
TTCGGCACGTGGCTGG
CGTGACACGTGGGGGT
GGTAGCACGTGCGCTG
AATGGCACGTGGAGGA
GGAGACACGTGGGAGC
TTAAGCACGTGTTTTA
TAGGCCACGTGTTTGT

Relative binding free energy, 0.19 kcal/mol:
CTTGTCACGTGAGGAG
ATGCTCACGTGCTGGG
GTTGTCACGTGTCTTA

Relative binding free energy, 0.1 kcal/mol:
CGTTCCACGTGGTTTT
TTGGCCACGTGAGTGC
TTGGACACGTGATGGG
GTTACCACGTGTGTAG
ATATTCACGTGCTAGG
ATGTTCACGTGCACGG

Relative binding free energy, -0.05 kcal/mol:
TGGAGCACGTGTGTCG
ATACGCACGTGAGGGG
GGAAGCACGTGTTGGG
GGGGGCACGTGTGTAA
TTGTGCACGTGTATTG
TTTCACACGTGCGGGG
TGTTGCACGTGCTTTT

Relative binding free energy, 0.15 kcal/mol:
AGAATCACGTGGTAAG
GATAGCACGTGTGGTT
GCGCGCACGTGAGGTT

Relative binding free energy, -0.25 kcal/mol:
TATGGCACGTGGGATC

Relative binding free energy, 0.24 kcal/mol:
GGAGTCACGTGAGGAG
CGCTTCACGTGTTTGG
TGAGTCACGTGATATT
TTTTGCACGTGTACTC
AAATTCACGTGGTTGC
AAATGCACGTGAGTTG
GTGAGCACGTGATGGC
CTTATCACGTGGATGA

Relative binding free energy, 0.27 kcal/mol:
GGCGTCACGTGAAGTT
ACTAGCACGTGTGGAA

Relative binding free energy, 0.38 kcal/mol:
GGTTTCACGTGATGAA

Relative binding free energy, 0.36 kcal/mol:
TCAGTCACGTGAGTTG
GGGTTCACGTGTTCTC

Relative binding free energy, -0.15 kcal/mol:
AAAAGCACGTGGTATG
AGTAGCACGTGTGTTC
TGGAGCACGTGCTGTG
TAGGGCACGTGTGTCT
ATGGGCACGTGGGGGG

Relative binding free energy, 0.35 kcal/mol:
GCATTCACGTGTGTGA

Relative binding free energy, -0.17 kcal/mol:
TTGAGCACGTGGTTAT
ATTGGCACGTGGTTAA

Relative binding free energy, -0.24 kcal/mol:
CCTGGCACGTGGGTTG
TAGGGCACGTGTCAGA

Relative binding free energy, -0.11 kcal/mol:
TGGACCACGTGTTTTG
TGGAGCACGTGGCTTG

Relative binding free energy, 0.06 kcal/mol:
TATGGCACGTGAGCTA
AAGGGCACGTGATTTT
AAGGACACGTGTATTG
AATTGCACGTGTGAGG

Relative binding free energy, -0.06 kcal/mol:
ATTATCACGTGGGTTG
ATTAACACGTGGTTTG
TGGGGCACGTGAGAAG
TGGGGCACGTGTTTAG

Relative binding free energy, -0.01 kcal/mol:
GTGGGCACGTGTTATG
GGGTGCACGTGCTAGG
AGTTACACGTGTGCTG
AGTGGCACGTGTCATG
TGATGCACGTGGGCGA
CTTTGCACGTGATTTT
TGGAGCACGTGATTCG
GCAGCCACGTGGGAGG
CGTTGCACGTGATAGT

Relative binding free energy, 0.09 kcal/mol:
AGTATCACGTGGTCTA
GGGCTCACGTGGCGGA
ATTGACACGTGGATTG
ATAGACACGTGTTTTT
AGATCCACGTGGTGAG
GGATGCACGTGTCGGT
TTTATCACGTGGGGCT
GGTAGCACGTGGTAAA
TAGGTCACGTGTTTAT
AATGTCACGTGGTTGC

Relative binding free energy, -0.03 kcal/mol:
ATTTGCACGTGTTCGT
AATAGCACGTGTGTAG

Relative binding free energy, -0.23 kcal/mol:
TACGGCACGTGGGATG
TGAGGCACGTGGGCGT
TATGGCACGTGGTCGG

Relative binding free energy, -0.18 kcal/mol:
AATGGCACGTGCTTTT

Relative binding free energy, 0.44 kcal/mol:
TGGGTCACGTGATTCA

Relative binding free energy, 0.33 kcal/mol:
TGCTTCACGTGCTTGA
TCGGTCACGTGAACGT
TGTTTCACGTGTGGAG

Relative binding free energy, -0.1 kcal/mol:
ATTGACACGTGTATGT
ATTAGCACGTGGGCTT

Relative binding free energy, 0.16 kcal/mol:
GGCGGCACGTGATGTA
CTGGCCACGTGAGTGT
GTATACACGTGATGTT
AGTAACACGTGTGAAT
GACGTCACGTGTTGGG

Relative binding free energy, 0.12 kcal/mol:
GTGAACACGTGGTGCA
GTCGTCACGTGTGGCT
GGGGTCACGTGCATTG
GCAGTCACGTGTGGCG
TGAATCACGTGGGAGC

Relative binding free energy, 0.11 kcal/mol:
TTCGTCACGTGGTTGG
TACGTCACGTGTTGGC
TAGTCCACGTGTGTAG
TGACTCACGTGGGGTT
AGGATCACGTGTTGCA
CTTTACACGTGGGAGA
AGGTGCACGTGAGCTA

Relative binding free energy, -0.09 kcal/mol:
AAGAGCACGTGTGGTT
TAGAGCACGTGGGAAG
TCTTGCACGTGGGTAT

Relative binding free energy, 0.28 kcal/mol:
TTGGTCACGTGGAAAT
ATTTTCACGTGGGGAG
CGGTTCACGTGATGTT

Relative binding free energy, 0.13 kcal/mol:
TTTTTCACGTGCAAGT
TCGTTCACGTGCGTGG
GGTTACACGTGGTTGA
GTTATCACGTGCTTAT

Relative binding free energy, 0.01 kcal/mol:
TAGGGCACGTGATAGG
AAAGGCACGTGATGCT
GTCTGCACGTGCGTGG

Relative binding free energy, 0.4 kcal/mol:
GCGTTCACGTGTGTGA

Relative binding free energy, -0.12 kcal/mol:
ATGAGCACGTGGGATA
GATGGCACGTGGGTAA

Relative binding free energy, 0.25 kcal/mol:
AAGCTCACGTGGTTAT
TCATTCACGTGGTGGC

Relative binding free energy, 0.22 kcal/mol:
CGAATCACGTGTAGGG
GTGAGCACGTGAGCTG
GGGGCCACGTGAGGTG
TCAGGCACGTGAATGT
GTGGTCACGTGGAGAT

Relative binding free energy, 0.23 kcal/mol:
CAGTGCACGTGTAGAT

Relative binding free energy, 0.05 kcal/mol:
TCTATCACGTGCTGGT
TAATCCACGTGTGTTA
CCTGTCACGTGGTTAT
TAAAGCACGTGAATGT
ATTCACACGTGCGGTG
TAGTCCACGTGTATAT

Relative binding free energy, -0.14 kcal/mol:
TAGGGCACGTGGAGGC
GGAAGCACGTGTGTTT
AAGGGCACGTGACGGT
CTAAGCACGTGTTTGT
TTATACACGTGGTGGC
ATTCGCACGTGGTGTC

Relative binding free energy, 0.29 kcal/mol:
TTGTTCACGTGCGCTG
ATCGTCACGTGAATAT
AAATACACGTGTGGAT

Relative binding free energy, 0.2 kcal/mol:
GAGTACACGTGGTCGA
GTCTGCACGTGATTTA
GGTTGCACGTGTTATT
TATAGCACGTGACTTG

Relative binding free energy, 0.26 kcal/mol:
AAATACACGTGAGGTG

Relative binding free energy, 0.32 kcal/mol:
AGGTTCACGTGATTAT
GGTCGCACGTGATTAA

Relative binding free energy, -0.08 kcal/mol:
AGATACACGTGTGTTA
GATGACACGTGGTGGC
CTATGCACGTGTGTGG
TGGGCCACGTGTGGTG

Reference: the BET-seq Pho4 binding data (Le et al. 2018)
